# From the supplement of paper PMC3334620
# Whole data set: some 33,000 sequences, median “E-score (-0.5 to 0.5)” near -0.054, cut for the highest 2% near 0.35. The list shows a part of the results.
# Target: T1, Stb5 (UniProt P38699)
# T1 sequence: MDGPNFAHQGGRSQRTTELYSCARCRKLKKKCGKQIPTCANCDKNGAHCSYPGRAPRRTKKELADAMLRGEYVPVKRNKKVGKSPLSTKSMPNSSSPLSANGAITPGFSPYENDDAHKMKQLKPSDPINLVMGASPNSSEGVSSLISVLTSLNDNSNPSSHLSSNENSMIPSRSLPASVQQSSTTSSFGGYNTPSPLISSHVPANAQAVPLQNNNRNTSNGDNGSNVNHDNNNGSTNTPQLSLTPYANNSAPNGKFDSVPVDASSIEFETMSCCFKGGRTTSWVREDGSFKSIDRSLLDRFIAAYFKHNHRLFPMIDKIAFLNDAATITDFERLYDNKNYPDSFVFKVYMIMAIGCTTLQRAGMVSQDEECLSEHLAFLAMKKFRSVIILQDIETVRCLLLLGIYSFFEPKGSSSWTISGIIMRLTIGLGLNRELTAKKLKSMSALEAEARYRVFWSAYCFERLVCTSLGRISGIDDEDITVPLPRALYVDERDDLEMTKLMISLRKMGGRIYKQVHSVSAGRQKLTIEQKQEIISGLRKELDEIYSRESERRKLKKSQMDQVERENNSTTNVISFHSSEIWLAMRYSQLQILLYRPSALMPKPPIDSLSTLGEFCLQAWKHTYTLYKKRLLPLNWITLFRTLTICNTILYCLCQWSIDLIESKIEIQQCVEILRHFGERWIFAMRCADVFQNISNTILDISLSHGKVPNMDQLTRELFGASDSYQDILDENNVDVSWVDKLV
# Test: PBM E-score (8-mer binding enrichment) (E-score (-0.5 to 0.5)); higher = stronger / more preferred TF binding; most listed sequences are background and not binding sites
# Details: protein concentration: 200 nM; construct: GST-full length
# Procedure: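 Universal 'all 10-mer' protein binding microarrays (Agilent AMADID 015681) probed with GST-tagged S. cerevisiae TFs (full-length or DBD) made by in vitro transcription/translation (PURExpress), about 100-200 nM. Bound TF was detected with fluorescent anti-GST. Each ungapped 8-mer (which stands for itself and its reverse complement) is scored by the PBM enrichment score (E-score), a modified Wilcoxon-Mann-Whitney statistic from -0.5 to +0.5, computed with the Universal PBM Analysis Suite. Scale: above 0.35 generally sequence-specific binding.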
row,Sequence,PBM E-score
1,AGAACTCG,-0.0793
2,CAGGTTTC,-0.133
3,CAAACACC,0.352
4,ATTCCGGC,0.173
5,CAATCTGC,0.0358
6,CAGCGTCC,0.0636
7,GATGAGTA,-0.219
8,CTCTAAGA,0.0752
9,GACTCAAA,0.013
10,CCTGCCCC,0.0235
11,CCACTTAG,-0.247
12,AACGCTCA,-0.111
13,CTATTATC,0.00658
14,CAGTTTAG,-0.0908
15,CGGGATGA,0.196
16,CAAACCTC,-0.132
17,CGTCCTGA,-0.273
18,CCCTCGTC,-0.0697
19,CTCAAAAC,-0.0766
20,ATAAGTGC,0.242
21,GAATCTTA,-0.147
22,CAAAACCA,-0.119
23,GTCTCAAA,-0.116
24,GATTCACA,-0.0699
25,AAAACCTG,-0.33

row,Sequence,PBM E-score
1,GTAGGGAA,0.0417
2,GTGGCTGA,-0.0545
3,ACAGCTTC,-0.199
4,GTCTTACA,-0.23
5,ACCTGCGA,-0.0142
6,ATAGTTCC,0.313
7,AACTAACT,-0.00013
8,GCCGGTAA,0.28
9,CATCTCGA,-0.287
10,CCGGCCTC,0.234
11,TCAAAAGA,0.0921
12,GCAGAACC,0.00461
13,CAAATTCG,0.221
14,CCATCACG,0.0916
15,AGACTTGG,-0.17
16,GTAGTGCA,-0.219
17,ACACGACC,0.109
18,GAACTGTA,-0.0888
19,CTGTCAAC,-0.214
20,CTGCTCAC,-0.202
21,CAAATAGG,-0.113
22,GGCATCAA,0.0936
23,GACGACCA,-0.0704
24,AATCAGCA,-0.155
25,ACAACATA,-0.0153

row,Sequence,PBM E-score
1,AGGAAACA,0.0202
2,AGGATAAA,-0.129
3,AATTCGCG,0.0722
4,ACCAACGC,-0.0565
5,CTGATGGC,-0.0621
6,GTATTCTA,-0.0377
7,ATTGTTAG,-0.0153
8,TAGCTCGA,-0.0447
9,AATTTGTA,-0.121
10,CCTTCTGC,-0.0972
11,ATCTATGG,-0.119
12,AATGGGTG,-0.294
13,ATACTTGG,-0.137
14,GGGGAGTA,0.0545
15,AAAGGCCG,0.446
16,GTGTCAAA,0.08
17,ACGAGACA,-0.206
18,ATTCACTC,0.0479
19,AAAACCAA,-0.0965
20,ACTGTTCT,-0.189
21,ATGAATTA,-0.111
22,CCTACGTC,-0.049
23,ATCAGTCG,0.0387
24,CATTAACC,-0.00636
25,CATTCCCG,0.203

row,Sequence,PBM E-score
1,GAATACAA,0.0475
2,GCGAAAGA,-0.0991
3,AGCGAAAT,-0.0849
4,CGTTGCGC,0.0674
5,GACAAAAA,0.0484
6,ATCGGGGG,0.289
7,CGAAGGTC,0.104
8,ATTGGCTC,-0.229
9,ACGCCCTC,-0.0589
10,CATCCTCA,-0.139
11,AATTCCAG,-0.0499
12,AATTTAAG,-0.0487
13,CAGTGATA,-0.0765
14,ACATGTCC,0.116
15,CAGTACAA,-0.0509
16,AAAAGCTT,-0.118
17,GTACGGGA,0.0793
18,AATCTCAC,-0.188
19,ATTTCAAG,-0.152
20,GGCAGTAC,0.0214
21,CCATTGGG,-0.0421
22,GTATACAA,0.0829
23,GCGCATCC,0.0779
24,AAGAGAGA,-0.325
25,GCCGGTAC,0.314

row,Sequence,PBM E-score
1,ATTAAGCC,0.164
2,CTCTGAAA,-0.187
3,AGCGACCA,-0.135
4,ACTAGGAA,-0.0827
5,ATCTCCCG,0.124
6,CGTTAGTC,0.0922
7,CGGACGTA,0.407
8,AATTAGGT,-0.0707
9,CCGCCGAC,0.356
10,ATCGAATC,-0.00403
11,GCAAATGC,0.0604
12,ATAGCTAA,-0.18
13,ATGGCTAA,-0.0533
14,AAACGCGG,0.271
15,GTTCACGA,-0.0648
16,AAGATTCT,-0.344
17,GGATGTAC,0.0579
18,CAGTTCTA,-0.128
19,CTCTACAG,-0.158
20,AATGATCA,-0.293
21,GCATTCGC,-0.0124
22,AGCCAGCA,-0.147
23,TGAGTCAA,-0.0377
24,CTACTTTA,-0.1
25,CTCGTGTC,-0.157

row,Sequence,PBM E-score
1,AACGGTAC,0.289
2,AATTATGC,0.0642
3,GCCTCAGC,-0.151
4,GAGCAGTA,-0.0483
5,CCGCCCGG,0.344
6,CATCTATA,0.038
7,GTTCTTAA,0.0213
8,CTTTCTGC,-0.15
9,CTTAATCC,0.0909
10,CATCGGTA,0.33
11,GGGGTGAA,0.183
12,GCAGTCCC,-0.173
13,ATTGGTGG,0.041
14,ACGTACAT,-0.108
15,GTCATAGA,-0.0642
16,CCGTGAAG,0.013
17,AAACGGAT,0.197
18,GCACTTAA,0.152
19,GCCGAATA,0.194
20,ACCTGACT,-0.309
21,CCGTCTAC,0.147
22,CTTTCAAA,-0.0117
23,ATTGCTCG,-0.0914
24,CCGAGGCA,0.0512
25,CACGCCTC,-0.342

row,Sequence,PBM E-score
1,GGCTACGA,0.0073
2,ACGCAGTC,-0.138
3,AGGACCCA,-0.133
4,AATTGGAC,0.0159
5,CCATGCGC,-0.00872
6,CCTAGTAA,0.115
7,AATGTACA,0.003
8,CATCATCC,-0.174
9,CAGAATCA,-0.134
10,GGTGCACC,-0.0672
11,AACTATAG,-0.0316
12,CTCGACCA,-0.211
13,GACAGTTA,-0.0979
14,AGATCACG,-0.179
15,AGAACTGC,-0.107
16,TCCGCGAA,0.252
17,AGCACAGG,-0.192
18,CGACTAAA,-0.102
19,TCACTAAA,-0.267
20,ATCACGAA,-0.109
21,AAATAAAG,-0.0493
22,ACCTCGAT,-0.167
23,AAGACAGG,-0.206
24,CTTTATGA,-0.246
25,GAGAGTCC,0.0382

row,Sequence,PBM E-score
1,AAAAGCGG,0.298
2,CCGCGAAG,0.213
3,AATTGTAG,-0.259
4,AGTGTCCA,-0.234
5,CGACGCCA,0.0897
6,CTAGTTCC,0.225
7,CTCCAAAC,-0.105
8,CACGTTTA,-0.22
9,CTCACCTA,-0.0147
10,TACTCCTA,-0.167
11,GTGAACCA,-0.099
12,GGTGTGCA,-0.211
13,AGGTCCCA,-0.357
14,CCAGGTGC,-0.153
15,AGTAGGTC,-0.0747
16,AGTAGGAA,-0.182
17,CGGGGGAA,0.257
18,ACCTAGAC,0.0305
19,CAGGTCCG,0.237
20,AGCTTAGG,-0.07
21,CCGGTCCA,0.19
22,ATTGGTAG,-0.0955
23,ATCCCGAC,0.39
24,AAAAGCAA,-0.148
25,GGTAAGTA,-0.00068

row,Sequence,PBM E-score
1,GCCGTAGA,0.0993
2,ACCGATAC,0.28
3,ACAAGACA,-0.159
4,AGGGGCAG,-0.286
5,AATAGCAA,-0.0528
6,CGTAGTAG,-0.0278
7,ATACGGAG,0.201
8,ATTTCGAG,-0.128
9,GCTTCTTA,0.0369
10,GAATCGCA,0.00579
11,CGTAGCGC,0.0794
12,ATGCGTTA,-0.0824
13,GGTCTTTA,0.282
14,ATGCGAAC,0.064
15,AATCGAGA,-0.219
16,ATCGTTAG,-0.0801
17,CATTTACG,-0.131
18,CCGCGCTC,0.227
19,AACCTGCT,-0.029
